# Measurements: the supplement of paper PMC3334620
# Whole data set: some 33,000 sequences, median “E-score (-0.5 to 0.5)” near -0.041, cut for the highest 2% near 0.37. Some of the results follow.
# Biological target: T1, Ecm22 (UniProt Q05958)
# T1 sequence: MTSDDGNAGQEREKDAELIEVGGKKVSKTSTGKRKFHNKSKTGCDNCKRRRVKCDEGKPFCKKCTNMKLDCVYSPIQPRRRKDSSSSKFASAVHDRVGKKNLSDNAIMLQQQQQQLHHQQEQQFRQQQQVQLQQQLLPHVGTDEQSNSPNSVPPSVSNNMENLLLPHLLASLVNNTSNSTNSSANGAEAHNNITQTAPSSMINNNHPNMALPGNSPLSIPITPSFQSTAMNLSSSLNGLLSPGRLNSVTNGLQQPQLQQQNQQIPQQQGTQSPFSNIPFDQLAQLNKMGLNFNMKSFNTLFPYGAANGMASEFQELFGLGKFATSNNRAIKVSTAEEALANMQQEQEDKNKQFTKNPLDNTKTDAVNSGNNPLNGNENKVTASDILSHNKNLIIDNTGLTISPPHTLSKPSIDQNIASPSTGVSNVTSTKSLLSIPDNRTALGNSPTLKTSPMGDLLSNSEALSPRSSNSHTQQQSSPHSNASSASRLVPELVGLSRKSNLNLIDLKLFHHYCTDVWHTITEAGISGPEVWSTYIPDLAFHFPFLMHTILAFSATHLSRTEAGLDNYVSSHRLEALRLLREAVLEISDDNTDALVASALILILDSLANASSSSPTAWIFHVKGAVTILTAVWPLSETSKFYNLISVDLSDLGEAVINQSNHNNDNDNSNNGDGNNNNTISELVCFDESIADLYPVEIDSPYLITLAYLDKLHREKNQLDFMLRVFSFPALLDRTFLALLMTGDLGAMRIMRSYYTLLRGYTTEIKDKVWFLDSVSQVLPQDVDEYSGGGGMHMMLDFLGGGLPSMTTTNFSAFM
# Test: PBM E-score (8-mer binding enrichment) (E-score (-0.5 to 0.5)); higher = stronger / more preferred TF binding; most listed sequences are background and not binding sites
# Settings: protein concentration: 200 nM; construct: GST-full length
# How it was run: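 Yeast transcription factors, full-length or as DNA-binding domains, were expressed with a GST tag using PURExpress in vitro transcription/translation. At about 100-200 nM they were applied to universal all-10-mer Agilent arrays, double-stranded by primer extension on fresh or once-stripped slides. Fluorescent anti-GST detected bound protein, and masliner normalised the scans. E-scores for ungapped eight-base words, pooled with reverse complements, came from the Universal PBM Analysis Suite.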
row,Sequence,PBM E-score
1,CCCGTTCA,0.267
2,ACCTGATA,-0.135
3,CTATATAC,0.327
4,CCAACAGG,-0.173
5,TTGACAAA,0.0926
6,AAAGGGGG,-0.196
7,GTGGCTAA,-0.0511
8,GGTACTAA,0.0853
9,ACAATCGT,0.273
10,CCAAGCGG,-0.131
11,ACGATCCC,0.156
12,GGAAGTTA,0.0819
13,AGGCATCC,-0.227
14,ATTTCCCA,0.00914
15,ATAACACG,0.092
16,GGTTCATA,0.0139
17,CCCCCCGG,-0.333
18,AATCAAAC,0.163
19,GTTGCTAA,0.222
20,CGATCTAC,0.184
21,CCCTGTGA,-0.102
22,CGAACAGC,0.0557

row,Sequence,PBM E-score
1,CCTGTTAC,-0.095
2,CTGTGAAG,-0.059
3,ATTGCAAG,-0.0295
4,AGATCACA,-0.0185
5,CCCGAAAG,0.0186
6,CATGTGGC,-0.127
7,AGGCAGAA,-0.0276
8,AAGGCTAT,-0.108
9,AGAGATCC,-0.087
10,CCACTTAC,0.174
11,CTAGCCGC,-0.102
12,ACTACAAT,0.00011
13,GGCGCGCC,0.155
14,CTGCCAAA,-0.042
15,CGATTCTA,-0.0273
16,AGTCCACT,-0.231
17,AAGAAGGT,-0.0463
18,AAAAGTCC,-0.0944
19,CTACCGCC,-0.259
20,AAGTCATC,-0.0342
21,AAGAACGG,0.243
22,AGAAGGCC,-0.00348

row,Sequence,PBM E-score
1,AGACCAAG,-0.115
2,GAATGCAA,0.0583
3,ACCGGTAC,0.0672
4,TGGAGGAA,-0.162
5,CGATAAGC,0.111
6,AGATAGGG,-0.127
7,GAAAATGA,-0.0403
8,AATAATGA,-0.0324
9,ATGCGAAT,0.264
10,CCTTAGCC,-0.23
11,TCTAAAGA,-0.152
12,AACGGATA,0.258
13,CCAGTCAA,-0.166
14,ACTCCGGA,0.181
15,AACCTTAT,-0.346
16,ACGGGCAC,0.0891
17,CGCGAGGC,0.272
18,AATAGATC,0.0136
19,GTGACCTA,-0.138
20,CGTGGTAG,-0.145
21,AAATCCGA,0.177
22,CGCTGATC,0.0573

row,Sequence,PBM E-score
1,CCTTGTAC,0.0602
2,CCCCATAC,-0.0766
3,AGTTTTGG,-0.205
4,AGCTCAGG,-0.211
5,GGAACCAC,-0.116
6,CATCCAGG,-0.383
7,CACTATAA,-0.153
8,ATATACTC,0.00817
9,AGCGTATA,0.366
10,AAGCCGGC,-0.34
11,GCGGTCTA,0.0621
12,CCAAGGTC,-0.271
13,AGCAATTG,-0.223
14,ACGCAGCT,0.125
15,GGTAGGAA,-0.216
16,ATCAAAAT,-0.00116
17,AACGTTCA,0.0914
18,AGGGCATC,-0.234
19,CATGCGTA,0.23
20,TGCACGCA,-0.0249
